From the supplement of paper PMC12217912
This is one part of the list. The full chains were built here from the parent and the listed change. Values near 0.05 are background.

B1: TEV protease; numbered along this chain (parent)
chain: MGESLFKGPRDYNPISSSICHLTNESDGHTTSLYGIGFGPFIITNKHLFRRNNGTLVVQSLHGVFKVKDTTTLQQHLVDGRDMIIIRMPKDFPPFPQKLKFREPQREERICLVTTNFQTKSMSSMVSDTSCTFPSGDGIFWKHWIQTKDGQCGSPLVSTRDGFIVGIHSASNFTNTNNYFTSVPKNFMELLTNQEAQQWVSGWRLNADSVLWGGHKVFMVKPEEPFQPVKEATQL

Variants of: B1
Test: raw area under fraction-flipped curve 0-4 h after induction (AUC4h, not background-subtracted), DNA-recorder readout of cleavage of the substrate (dimensionless); higher = more cleavage of the substrate by the protease variant
Conditions: temperature: 34 °C; time window: 0-4 h after rhamnose induction
Method: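 In vivo DNA recorder in E. coli TOP10(DE3) ΔrhaA at 34 °C. Each TEVp single-site mutant (parent TEVp 0) is paired with a single-site variant of the 7-mer TEVs (canonical ENLYFQ|S). The substrate sits between flexible linkers in a Bxb1-sfGFP-TEVs-SsrA fusion, so cleavage stabilises Bxb1 and speeds flipping of a recombination array, read by NGS. The value is the raw area under the fraction-flipped curve over 0-4 h after rhamnose induction (AUC4h), with ≥20 reads per time point. It is not background-subtracted; inactive controls average about 0.047.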
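Also: Bxb1 expression induced with 0.2% (w/v) L-rhamnose at OD600 near 0.5, cultures sampled hourly, flipped fraction per protease–substrate barcode pair counted by paired-end Illumina sequencing.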

| Variant | area with substrate ENLYFQA | area with substrate ENLYFQD | area with substrate ENLYFQF | area with substrate ENLYFQH | area with substrate ENLYFQI | area with substrate ENLYFQL | area with substrate ENLYFQN | area with substrate ENLYFQP | area with substrate ENLYFQQ | area with substrate ENLYFQR | area with substrate ENLYFQS | area with substrate ENLYFQT | area with substrate ENLYFQV | area with substrate ENLYFQW | area with substrate ENLYFQC | area with substrate ENLYFQM | area with substrate ENLYFQY | area with substrate ENLYFQG | area with substrate ENLYFQE | area with substrate ENLYFQK |
| --- | --- | --- | --- | --- | --- | --- | --- | --- | --- | --- | --- | --- | --- | --- | --- | --- | --- | --- | --- | --- |
| MGESLFKGPRDYNPISSSICHLTNESDGHTTSLYGIGFGPFIITNKHLFRRNNGTLVVQSLHGVFKVKDTTTLQQHLVDGRDMIIIRMPKDFPPFPQKLKFREPQREERICLVTTNFQTKSMSSMVSDTSCTFPSGDGIFWKHWIQTKDGQCGSPLVSTRDGFIVGIHSASNFTNTNNYFTSVPKNFMELLTNQEAQQWVSGWRLNADSVLLGGHKVFMVKPEEPFQPVKEATQL [W212L] | 0.0971 | 0.0752 | 0.109 | 0.0811 | 0.053 | 0.069 | 0.0957 | 0.0476 | 0.0789 | 0.0602 | 0.12 | 0.0682 | 0.0559 | 0.0766 | – | – | – | – | – | – |
| MGESLFKGPRDYNPISSSICHLTNESDGHTTSLYGIGFGPFIITNKHLFRRNNGTLVVQSLHGVFKVKDTTTLQQHLVDGRDMIIIRMPKDFPPFPQKLKFREPQREERICLVTTNFQTKSMSSMVSDTSCTFPSGDGIFWKHWIQTKDGQCGSPLVSTRDGFIVGIHSASNFTNTNNYFTSVPKNFMELLTNQEAQQWVSGWRLNADSRLWGGHKVFMVKPEEPFQPVKEATQL [V210R] | 0.0707 | – | – | – | 0.0533 | – | 0.0669 | 0.0317 | – | 0.0573 | 0.0764 | 0.0655 | 0.0647 | – | 0.102 | 0.0578 | 0.0526 | – | – | – |
| MGESLFKGPRDYNPISSSICHLTNESDGHTTSLYGIGFGPFIITNKHLFRRNNGTLVVQSLHGVFKVKDTTTLQQHLVDGRDMIIIRMPKDFPPFPQKLKFREPQREERICLVTTNFQTKSMSSMVSDTSCTFPSGDGIFWKHWIQTKDGQCGSPLVSTRDGFIVGIHSASNFTNTNNYFTSVPKNFMELLTNQEAQQWVSGWRLNADSHLWGGHKVFMVKPEEPFQPVKEATQL [V210H] | 0.101 | – | – | – | – | – | 0.0575 | 0.0616 | – | 0.0638 | 0.0848 | 0.064 | 0.0289 | 0.0587 | 0.0916 | – | 0.0652 | 0.0847 | – | – |
| MGESLFKGPRDYNPISSSICHLTNESDGHTTSLYGIGFGPFIITNKHLFRRNNGTLVVQSLHGVFKVKDTTTLQQHLVDGRDMIIIRMPKDFPPFPQKLKFREPQREERICLVTTNFQTKSMSSMVSDTSCTFPSGDGIFWKHWIQTKDGQCGSPLVSTRDGFIVGIHSASNFTNTNNYFTSVPKNFMELLTNQEAQQWVSGWRLNADSVLWGGHKVFMVKPVEPFQPVKEATQL [E223V] | 0.0748 | 0.0737 | – | – | 0.0757 | – | – | 0.0899 | 0.0866 | – | 0.0929 | 0.0679 | – | – | – | 0.102 | – | 0.104 | 0.0504 | – |
| MGESLFKGPRDYNPISSSICHLTNESDGHTTSLYGIGFGPFIITNKHLFRRNNGTLVVQSLHGVFKVKDTTTLQQHLVDGRDMIIIRMPKDFPPFPQKLKFREPQREERICLVTTNFQTKSMSSMVSDTSCTFPSGDGIFWKHWIQTKDGQCGSPLVSTRDGFIVGIHSASNFTNTNNYFTSVPKNFMELLTNQEAQQWVSGWRLNADSVLWGGHKVFMVKPWEPFQPVKEATQL [E223W] | 0.0583 | 0.0722 | 0.0376 | 0.0747 | 0.0568 | 0.0485 | 0.0739 | 0.0693 | 0.0895 | 0.0547 | 0.0907 | 0.0709 | 0.0535 | 0.0981 | – | 0.0758 | 0.0716 | 0.0847 | – | 0.0621 |
| MGESLFKGPRDYNPISSSICHLTNESDGHTTSLYGIGFGPFIITNKHLFRRNNGTLVVQSLHGVFKVKDTTTLQQHLVDGRDMIIIRMPKDFPPFPQKLKFREPQREERICLVTTNFQTKSMSSMVSDTSCTFPSGDGIFWKHWIQTKDGQCGSPLVSTRDGFIVGIHSASNFTNTNNYFTSVPKNFMELLTNQEAQQWVSGWRLNADSVLWGGHKSFMVKPEEPFQPVKEATQL [V217S] | 0.0597 | 0.0535 | – | 0.0631 | – | – | 0.0601 | – | – | 0.0603 | 0.0683 | – | – | 0.059 | 0.0693 | 0.0719 | 0.0663 | – | – | 0.0586 |
| MGESLFKGPRDYNPISSSICHLTNESDGHTTSLYGIGFGPFIITNKHLFRRNNGTLVVQSLHGVFKVKDTTTLQQHLVDGRDMIIIRMPKDFPPFPQKLKFREPQREERICLVTTNFQTKSMSSMVSDTSCTFPSGDGIFWKHWIQTKDGQCGSPLVSTRDGFIVGIHSASNFTNTNNYFTSVPKNFMELLTNQEAQQWVSGWRLNADSVLWGGHKTFMVKPEEPFQPVKEATQL [V217T] | 0.076 | – | – | 0.0649 | 0.0564 | – | 0.0767 | 0.0673 | 0.0565 | 0.0429 | 0.0785 | – | 0.0671 | 0.0628 | 0.0968 | 0.0599 | – | 0.0782 | – | 0.0634 |
| MGESLFKGPRDYNPISSSICHLTNESDGHTTSLYGIGFGPFIITNKHLFRRNNGTLVVQSLHGVFKVKDTTTLQQHLVDGRDMIIIRMPKDFPPFPQKLKFREPQREERICLVTTNFQTKSMSSMVSDTSCTFPSGDGIFWKHWIQTKDGQCGSPLVSTRDGFIVGIHSASNFTNTNNYFTSVPKNFMELLTNQEAQQWVSGWRLNADSVLWGGHKYFMVKPEEPFQPVKEATQL [V217Y] | 0.0591 | 0.0575 | 0.0632 | – | 0.0585 | – | – | – | – | 0.0604 | 0.0634 | 0.0584 | – | 0.0494 | 0.0639 | 0.0539 | 0.0623 | 0.0557 | – | 0.0568 |
| MGESLFKGPRDYNPISSSICHLTNESDGHTTSLYGIGFGPFIITNKHLFRRNNGTLVVQSLHGVFKVKDTTTLQQHLVDGRDMIIIRMPKDFPPFPQKLKFREPQREERICLVTTNFQTKSMSSMVSDTSCTFPSGDGIFWKHWIQTKDGQCGSPLVSTRDGFIVGIHSASNFTNTNNYFTSVPKNFMELLTNQEAQQWVSGWRLNADSVLWGGHKFFMVKPEEPFQPVKEATQL [V217F] | 0.0748 | 0.0819 | 0.0613 | – | 0.0618 | – | – | – | – | 0.063 | 0.0883 | 0.0573 | – | – | 0.0809 | 0.031 | 0.0698 | 0.0814 | – | 0.0657 |
